# Results as given in a collection of fitness landscapes (doi:10.1016/j.celrep.2020.107928).
# Whole data set: some 81,000 sequences, median “one-hybrid fitness for binding parS DNA” near -0.17, cut for the highest 2% near 0.51. Some of the results follow.
# B1: Caulobacter ParB omega fusion; a variant is named by its letters at X, in order, B8GW30 (parent)
# chain: MESVVVGEPGMSEGRRGLGRGLSALLGEVDAAPAQAPGEQLGGSREAPIEILQRNPDQPRRTFREEDLEDLSNSIREKGVLQPILVRPSPDTAGEYQIVAGERAWRAAQRAGLKTVPIMVRELDDLAVLEIGIIENVQRADLNVLEEALSYKVLMEKFERTQENIAQTIGKSXSHVANXMRLLXLPDEVQSYLVSGELTAXHARAIAAAADPVALAKQIIEGGLSVRETEALARKAPNLSAGKSKGGRPPRVKDTDTQALESDLSSVLGLDVSIDHRGSTGTLTITYATLEQLDDLCNRLTRGI
# Variants of: B1
# Assay: one-hybrid fitness for binding parS DNA (scaled: cognate 1, non-cognate 0); higher = stronger binding
# Settings: with parS DNA site
# Procedure, shortened: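 The reporter was HIS3, with the binding site 19 bp from the promoter, in E. coli USO used for bacterial one-hybrid selection of Caulobacter ParB libraries with four specificity codons randomised. Growth was on M9 lacking histidine, with 0.1 mM IPTG and 5 mM 3-AT, for 48 hours at 37°C. Illumina sequencing covered plasmids before and after selection; three replicate libraries were pooled and variants with under 10 reads dropped. A fitness score is the log change in variant-to-wild-type read ratio, rescaled to the cognate and non-cognate references.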
row,Variant,one-hybrid fitness for binding parS DNA
1,ATTP,≤ 0.2
2,LTSW,≤ 0.2
3,KKHL,≤ 0.2
4,MMFG,≤ 0.2
5,EHDM,≤ 0.2
6,QYQM,≤ 0.2
7,RFHY,0.462
8,CVVF,≤ 0.2
9,ALHE,≤ 0.2
10,FPRV,≤ 0.2
11,TKPT,≤ 0.2
12,SKDP,≤ 0.2
13,EESV,≤ 0.2
14,DYSC,≤ 0.2
15,AFLG,≤ 0.2
16,WWLN,≤ 0.2
17,VPDM,≤ 0.2
18,TQPL,≤ 0.2
19,NTPL,≤ 0.2
20,LHCT,≤ 0.2
21,LNRH,≤ 0.2
22,VARH,≤ 0.2
23,PMNL,≤ 0.2
24,GSWL,≤ 0.2

row,Variant,one-hybrid fitness for binding parS DNA
1,NWEG,≤ 0.2
2,NMPV,≤ 0.2
3,MATL,≤ 0.2
4,IDNM,≤ 0.2
5,CPRG,≤ 0.2
6,SVAC,≤ 0.2
7,YALA,≤ 0.2
8,QTDE,≤ 0.2
9,MRHY,≤ 0.2
10,ICGT,≤ 0.2
11,CYTG,≤ 0.2
12,SLNM,≤ 0.2
13,ACNC,≤ 0.2
14,LNSW,≤ 0.2
15,LQVC,≤ 0.2
16,EPQM,≤ 0.2
17,TSWQ,≤ 0.2
18,FKSS,≤ 0.2
19,GVHT,≤ 0.2
20,FCAS,≤ 0.2
21,QNQT,≤ 0.2
22,QQCG,≤ 0.2
23,PESC,≤ 0.2
24,HYFS,≤ 0.2

row,Variant,one-hybrid fitness for binding parS DNA
1,RFKN,0.441
2,HTST,≤ 0.2
3,VDWK,≤ 0.2
4,TIIY,≤ 0.2
5,LVAM,≤ 0.2
6,CVEC,≤ 0.2
7,HPGE,≤ 0.2
8,VPYW,≤ 0.2
9,KRPI,≤ 0.2
10,RATV,≤ 0.2
11,RLWT,0.889
12,VWVR,≤ 0.2
13,FQGT,≤ 0.2
14,VPRM,≤ 0.2
15,LIHN,≤ 0.2
16,KSSC,≤ 0.2
17,RMLQ,0.208
18,GKDF,≤ 0.2
19,RLPG,0.755
20,TAVA,≤ 0.2
21,NHLS,≤ 0.2
22,ILTV,≤ 0.2
23,FPGG,≤ 0.2
24,PHYA,≤ 0.2

row,Variant,one-hybrid fitness for binding parS DNA
1,YNCG,≤ 0.2
2,EHAP,0.214
3,VMTR,≤ 0.2
4,FRHW,≤ 0.2
5,VDSG,≤ 0.2
6,SVHT,≤ 0.2
7,RIDT,0.725
8,SPHD,≤ 0.2
9,VHCS,≤ 0.2
10,NLFQ,≤ 0.2
11,DWHR,≤ 0.2
12,PQEV,≤ 0.2
13,NTLA,≤ 0.2
14,DNYA,≤ 0.2
15,RVHA,0.552
16,TNRR,≤ 0.2
17,RKDE,≤ 0.2
18,LGDG,≤ 0.2
19,TLLA,≤ 0.2
20,TKTE,≤ 0.2
21,PIWC,≤ 0.2
22,HPWV,≤ 0.2
23,TSAK,≤ 0.2
24,IFTL,≤ 0.2

row,Variant,one-hybrid fitness for binding parS DNA
1,ITWS,≤ 0.2
2,QCNQ,≤ 0.2
3,LGQR,≤ 0.2
4,GTRM,≤ 0.2
5,SQVV,≤ 0.2
6,RFFY,0.269
7,DTPT,≤ 0.2
8,NYRA,≤ 0.2
9,PGQG,≤ 0.2
10,DTKT,≤ 0.2
11,MDNL,≤ 0.2
12,KISC,≤ 0.2
13,TNHR,≤ 0.2
14,HMLV,≤ 0.2
15,ETSL,≤ 0.2
16,TLVF,≤ 0.2
17,RMVF,0.259
18,MLRL,≤ 0.2
19,LCSP,≤ 0.2
20,AEKS,≤ 0.2
21,WTNS,≤ 0.2
22,RNCV,≤ 0.2
23,CCKY,≤ 0.2
24,CNHT,≤ 0.2

row,Variant,one-hybrid fitness for binding parS DNA
1,QPYP,≤ 0.2
2,WPPM,≤ 0.2
3,SGWW,≤ 0.2
4,SMRE,≤ 0.2
5,LASD,≤ 0.2
6,ILST,≤ 0.2
7,FYRG,≤ 0.2
8,HDFT,≤ 0.2
9,PFCS,≤ 0.2
10,QQHK,≤ 0.2
11,WTKI,≤ 0.2
12,TRLR,≤ 0.2
13,SFMF,≤ 0.2
14,VKTF,≤ 0.2
15,KVAN,≤ 0.2
16,AIKA,≤ 0.2
17,KAME,≤ 0.2
18,HAVD,≤ 0.2
19,YEKG,≤ 0.2
20,YCHM,≤ 0.2
21,RPIN,≤ 0.2
22,HGVM,≤ 0.2
23,MGGF,≤ 0.2
24,YKLS,≤ 0.2

row,Variant,one-hybrid fitness for binding parS DNA
1,KCWS,≤ 0.2
2,FAPG,≤ 0.2
3,ALYT,≤ 0.2
4,SIAS,≤ 0.2
5,RGHT,0.519
6,RDGG,≤ 0.2
7,VYNC,≤ 0.2
8,SMPD,≤ 0.2
9,LSGH,≤ 0.2
10,HTKG,≤ 0.2
11,RQET,0.719
12,NEPW,≤ 0.2
13,ILTS,≤ 0.2
14,QVQY,≤ 0.2
15,LSNS,≤ 0.2
16,PQYG,≤ 0.2
17,VPPV,≤ 0.2
18,RMLH,0.275
19,VRPF,≤ 0.2
20,QVHI,≤ 0.2
21,PSQM,≤ 0.2
22,REES,≤ 0.2
23,PQIV,≤ 0.2
24,PSSW,≤ 0.2

row,Variant,one-hybrid fitness for binding parS DNA
1,TEPG,≤ 0.2
2,SVTT,≤ 0.2
3,DLSC,≤ 0.2
4,QVGS,≤ 0.2
5,NPLR,≤ 0.2
6,QASM,≤ 0.2
7,LYSM,≤ 0.2
8,PNAI,≤ 0.2
9,FPMG,≤ 0.2
10,YYYG,≤ 0.2
11,SCLF,≤ 0.2
12,AIDF,≤ 0.2
13,QIMY,≤ 0.2
14,SSCW,≤ 0.2
15,GKYF,≤ 0.2
16,ETAD,≤ 0.2
17,HAHQ,≤ 0.2
18,YMDC,≤ 0.2
19,AGSP,≤ 0.2
20,IWPC,≤ 0.2
21,QCYM,≤ 0.2
22,ALWM,≤ 0.2
23,EQNC,≤ 0.2
24,CSKL,≤ 0.2

row,Variant,one-hybrid fitness for binding parS DNA
1,QLMT,≤ 0.2
2,AAAY,≤ 0.2
3,KIFL,≤ 0.2
4,QQQT,≤ 0.2
5,TPLS,≤ 0.2
6,GVNY,≤ 0.2
7,FYAG,≤ 0.2
8,VIPL,≤ 0.2
9,TKTQ,≤ 0.2
10,KECR,≤ 0.2
11,ETST,≤ 0.2
12,SCDG,≤ 0.2
13,MNSC,≤ 0.2
14,GPCR,≤ 0.2
15,ARPH,≤ 0.2
16,DVNH,≤ 0.2
17,TKIV,≤ 0.2
18,LQIG,≤ 0.2
19,TIDL,≤ 0.2
20,QREN,≤ 0.2
21,THLQ,≤ 0.2
22,IHFR,≤ 0.2
23,GPSW,≤ 0.2
24,SKRV,≤ 0.2

row,Variant,one-hybrid fitness for binding parS DNA
1,CCIK,≤ 0.2
2,VTPC,≤ 0.2
3,LVRM,≤ 0.2
4,KNYG,≤ 0.2
5,SVPY,≤ 0.2
6,VEDW,≤ 0.2
7,IHWS,≤ 0.2
8,ACTL,≤ 0.2
9,NLPG,≤ 0.2
10,LPVT,≤ 0.2
11,QTLQ,≤ 0.2
12,VCDS,≤ 0.2
13,SHET,≤ 0.2
14,LMPE,≤ 0.2
15,HYVG,≤ 0.2
16,LFAR,≤ 0.2
17,NLDC,≤ 0.2
18,SRPS,≤ 0.2
19,EMAS,≤ 0.2
20,HRFG,≤ 0.2
21,WMQV,≤ 0.2
22,HTNK,≤ 0.2
23,FYLF,≤ 0.2
24,NLHS,≤ 0.2

row,Variant,one-hybrid fitness for binding parS DNA
1,AFAL,≤ 0.2
2,PTQN,≤ 0.2
3,KLSN,≤ 0.2
4,PETS,≤ 0.2
5,SCTA,≤ 0.2
6,KMAL,≤ 0.2
7,RLWL,≤ 0.2
8,SPSQ,≤ 0.2
9,CPYS,≤ 0.2
10,ERRM,≤ 0.2
11,LLVR,≤ 0.2
12,YALM,≤ 0.2
13,YTDR,≤ 0.2
14,TRKF,≤ 0.2
15,HELP,≤ 0.2
16,VRAR,≤ 0.2
17,PFTT,≤ 0.2
18,KSML,≤ 0.2
19,AGVY,≤ 0.2
20,RYSD,≤ 0.2
21,AGDC,≤ 0.2
22,STTQ,≤ 0.2
23,SMTG,≤ 0.2
24,AQLV,≤ 0.2

row,Variant,one-hybrid fitness for binding parS DNA
1,RKLW,≤ 0.2
2,SDAT,≤ 0.2
3,CLGK,≤ 0.2
4,NPGL,≤ 0.2
5,PSDR,≤ 0.2
6,EMMK,≤ 0.2
7,PVLT,≤ 0.2
8,YWNR,≤ 0.2
9,SNES,≤ 0.2
10,DTDG,≤ 0.2
11,CECT,≤ 0.2
12,TTRY,≤ 0.2
13,QDKG,≤ 0.2
14,TKPS,≤ 0.2
15,DAVT,≤ 0.2
16,RGIR,≤ 0.2
17,MQPL,≤ 0.2
18,LSAC,≤ 0.2
19,QHDG,≤ 0.2
20,VPFM,≤ 0.2
21,RRPA,0.574
22,AQLP,≤ 0.2
23,EIWR,≤ 0.2
24,RDCR,≤ 0.2

row,Variant,one-hybrid fitness for binding parS DNA
1,RQAA,0.571
2,KAYV,≤ 0.2
3,THKK,≤ 0.2
4,NPVS,≤ 0.2
5,NMTT,≤ 0.2
6,RKMR,≤ 0.2
7,YMVW,≤ 0.2
8,WHDS,≤ 0.2
9,ASHC,≤ 0.2
10,SCYE,≤ 0.2
11,FGAG,≤ 0.2
12,EIVW,≤ 0.2
13,SVTC,≤ 0.2
14,ECNW,≤ 0.2
15,MYQC,≤ 0.2
16,QNHS,≤ 0.2
17,QYMY,≤ 0.2
18,MKKS,≤ 0.2
